This is one part of the list. At the low end of the ranking the order means little.

In the assay the target is GST-SBP-SLBP (stem-loop binding protein) (UniProt Q14493). In words: targeted RNA Bind-n-Seq.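 Further: DESeq read counts versus GST-SBP nonspecific binding control pulldown.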 The settings on record: RBNS binding buffer: 25 mM Tris pH 7.5, 150 mM KCl, 3 mM MgCl2, 0.1% Tween, 0.5 mg/mL BSA, 1 mM DTT; 27 nM protein, 750 pM RNA pool; temperature not stated; high values mean tight binding.
As to “GGUCACGUCUCAAUCAACUCAUUUCCAGGAGUUUCCUCCUGCUUUCUCAACAGCUCGCAGUCAAG”, the binding signal (log2 fold change) was 0.0705.

In the case of “GGUCACGUCUCAAUCAACUCUUAAGAGGGGGGGAAAACCCCUUUACCCUCCGUUUCAACAGCUCGCAGUCAAG”, the binding signal (log2 fold change) is -0.503.

For the sequence “GGUCACGUCUCAAUCAACUCUACAGAGGGGGGGAAAACCCCUUUGCCCUCCAUAUCAACAGCUCGCAGUCAAG”, the binding signal (log2 fold change) is -0.539.

Take “GGUCACGUCUCAAUCAACUCAUUUUCAGGAGUUUACUCCUGUAUACUCAACAGCUCGCAGUCAAG”: the binding signal (log2 fold change) turned out to be 0.0539.

As to “GGUCACGUCUCAAUCAACUCACAAGAGGGGGGGAAAACCCCUUUGCCCUCACACUCAACAGCUCGCAGUCAAG”, the binding signal (log2 fold change) amounted to 0.201.

With “GGUCACGUCUCAAUCAACUCAGUCCCCAGGGAAACCCCUGGUUAAUUCAACAGCUCGCAGUCAAG”, the binding signal (log2 fold change) was -0.153.

For the sequence “GGUCACGUCUCAAUCAACUCAACUUCCAGGGAAAUCCCUGGUUAUCUCAACAGCUCGCAGUCAAG”, the binding signal (log2 fold change) was -0.0259.

On to “GGUCACGUCUCAAUCAACUCUACUUCCAGGGAAAGCCCUGGCAAACUCAACAGCUCGCAGUCAAG”, for which the binding signal (log2 fold change) is -0.0996.

For the sequence “GGUCACGUCUCAAUCAACUCAUUCCCAGGAGUUUUCUCCUGCAUUCUCAACAGCUCGCAGUCAAG”, the binding signal (log2 fold change) amounted to 0.0703.

“GGUCACGUCUCAAUCAACUCAGUCUCCAGGGAAAUCCCUGGCUUUCUCAACAGCUCGCAGUCAAG”: the binding signal (log2 fold change) was -0.542.

In the case of “GGUCACGUCUCAAUCAACUCCUACGAGGGGGGGAAAACCCCUUUACCCUCAUACUCAACAGCUCGCAGUCAAG”, the binding signal (log2 fold change) is -0.157.

For the sequence “GGUCACGUCUCAAUCAACUCAUUCCCAGGAGUUUCCUCCUGUAAAUUCAACAGCUCGCAGUCAAG”, the binding signal (log2 fold change) is -0.0105.

Regarding “GGUCACGUCUCAAUCAACUCAAUGUCAGGAGUUUACUCCUGCUAAUUCAACAGCUCGCAGUCAAG”, the binding signal (log2 fold change) came to 0.0432.

For “GGUCACGUCUCAAUCAACUCAAUUCCCAGGGAAAUCCCUGGCUUUUUCAACAGCUCGCAGUCAAG”, the binding signal (log2 fold change) amounted to 0.0611.

“GGUCACGUCUCAAUCAACUCCUUAGAGGGGGGGAAAACCCCUUUGCCCUCAAUAUCAACAGCUCGCAGUCAAG”: the binding signal (log2 fold change) is -0.348.

Consider “GGUCACGUCUCAAUCAACUCAUUCCCAGGAGUUUUCUCCUGUUAACUCAACAGCUCGCAGUCAAG”, for which the binding signal (log2 fold change) was determined as 0.0241.

Turning to “GGUCACGUCUCAAUCAACUCUAUAGAGGGGGGGAAAACCCCUUUGCCCUCAACAUCAACAGCUCGCAGUCAAG”, the binding signal (log2 fold change) came to 0.0286.

Turning to “GGUCACGUCUCAAUCAACUCUAUCGAGGGGGGGAAAACCCCUUUACCCUCUCAAUCAACAGCUCGCAGUCAAG”, the binding signal (log2 fold change) was 0.049.

Take “GGUCACGUCUCAAUCAACUCUUCUCCCAGGGAAACCCCUGGUUUUCUCAACAGCUCGCAGUCAAG”: the binding signal (log2 fold change) was -0.0442.

Take “GGUCACGUCUCAAUCAACUCAGUCUCAGGAGUUUACUCCUGCUAAUUCAACAGCUCGCAGUCAAG”: the binding signal (log2 fold change) was -0.111.

On to “GGUCACGUCUCAAUCAACUCAAUAGAGGGGGGGAAAACCCCUUUACCCUCCACUUCAACAGCUCGCAGUCAAG”, for which the binding signal (log2 fold change) turned out to be 0.0643.

Turning to “GGUCACGUCUCAAUCAACUCAAUCCCAGGAGUUUACUCCUGCAUAUUCAACAGCUCGCAGUCAAG”, the binding signal (log2 fold change) was -0.0694.

As to “GGUCACGUCUCAAUCAACUCACUCGAGGGGGGGAAAACCCCUUUACCCUCAACUUCAACAGCUCGCAGUCAAG”, the binding signal (log2 fold change) was -0.0114.

Consider “GGUCACGUCUCAAUCAACUCCAUAGAGGGGGGGAAAACCCCUUUACCCUCAAACUCAACAGCUCGCAGUCAAG”, for which the binding signal (log2 fold change) was -0.124.

Regarding “GGUCACGUCUCAAUCAACUCAAUCCCCAGGGAAAUCCCUGGUUAACUCAACAGCUCGCAGUCAAG”, the binding signal (log2 fold change) was -0.124.

“GGUCACGUCUCAAUCAACUCUACUCCCAGGGAAAGCCCUGGUUUUUUCAACAGCUCGCAGUCAAG”: the binding signal (log2 fold change) was 0.107.

As to “GGUCACGUCUCAAUCAACUCUAUUUCAGGAGUUUUCUCCUGCAAUCUCAACAGCUCGCAGUCAAG”, the binding signal (log2 fold change) came out at 0.0215.

Turning to “GGUCACGUCUCAAUCAACUCAAUCUCCAGGGAAACCCCUGGUUAACUCAACAGCUCGCAGUCAAG”, the binding signal (log2 fold change) is -0.235.

As for “GGUCACGUCUCAAUCAACUCAUCUCCAGGAGUUUGCUCCUGUAUAUUCAACAGCUCGCAGUCAAG”, the binding signal (log2 fold change) is -0.0561.

For “GGUCACGUCUCAAUCAACUCUAUUCCCAGGGAAAUCCCUGGUUUAUUCAACAGCUCGCAGUCAAG”, the binding signal (log2 fold change) is -0.0416.

For “GGUCACGUCUCAAUCAACUCUUUUUCCAGGGAAAACCCUGGUUUAUUCAACAGCUCGCAGUCAAG”, the binding signal (log2 fold change) was -0.0397.

On to “GGUCACGUCUCAAUCAACUCUUCUUCAGGAGUUUGCUCCUGCAUUUUCAACAGCUCGCAGUCAAG”, for which the binding signal (log2 fold change) is -0.087.

For “GGUCACGUCUCAAUCAACUCAUCCUCAGGAGUUUUCUCCUGUAAUCUCAACAGCUCGCAGUCAAG”, the binding signal (log2 fold change) is 0.109.

For the sequence “GGUCACGUCUCAAUCAACUCAACUCCAGGAGUUUCCUCCUGCUUAUUCAACAGCUCGCAGUCAAG”, the binding signal (log2 fold change) was -0.00125.

As to “GGUCACGUCUCAAUCAACUCUUCUCCCAGGGAAAACCCUGGUAAACUCAACAGCUCGCAGUCAAG”, the binding signal (log2 fold change) was 0.272.

On to “GGUCACGUCUCAAUCAACUCUUAAGAGGGGGGGAAAACCCCUUUGCCCUCCAAUUCAACAGCUCGCAGUCAAG”, for which the binding signal (log2 fold change) was -0.694.

In the case of “GGUCACGUCUCAAUCAACUCAUUCCCCAGGGAAAUCCCUGGUAAACUCAACAGCUCGCAGUCAAG”, the binding signal (log2 fold change) was -0.0132.

For “GGUCACGUCUCAAUCAACUCAAUCCCAGGAGUUUACUCCUGUAUUUUCAACAGCUCGCAGUCAAG”, the binding signal (log2 fold change) is -0.0285.

As to “GGUCACGUCUCAAUCAACUCUAUCCCCAGGGAAAGCCCUGGUAUACUCAACAGCUCGCAGUCAAG”, the binding signal (log2 fold change) came to 0.0411.

Regarding “GGUCACGUCUCAAUCAACUCAAUUCCCAGGGAAAACCCUGGCAAACUCAACAGCUCGCAGUCAAG”, the binding signal (log2 fold change) is -0.0334.

With “GGUCACGUCUCAAUCAACUCAUUCGAGGGGGGGAAAACCCCUUUACCCUCAACUUCAACAGCUCGCAGUCAAG”, the binding signal (log2 fold change) is -0.124.

For the sequence “GGUCACGUCUCAAUCAACUCAUCCCCAGGAGUUUCCUCCUGUAAUUUCAACAGCUCGCAGUCAAG”, the binding signal (log2 fold change) was 0.0669.

Take “GGUCACGUCUCAAUCAACUCAAUCUCAGGAGUUUGCUCCUGCAUAGUCAACAGCUCGCAGUCAAG”: the binding signal (log2 fold change) was found to be 0.131.

As for “GGUCACGUCUCAAUCAACUCCCAAGAGGGGGGGAAAACCCCUUUGCCCUCAACUUCAACAGCUCGCAGUCAAG”, the binding signal (log2 fold change) is -0.504.

Take “GGUCACGUCUCAAUCAACUCAUCUUCAGGAGUUUGCUCCUGUAAAUUCAACAGCUCGCAGUCAAG”: the binding signal (log2 fold change) was -0.00549.

As to “GGUCACGUCUCAAUCAACUCAAUCCCAGGAGUUUACUCCUGCUUUUUCAACAGCUCGCAGUCAAG”, the binding signal (log2 fold change) came out at 0.129.

Turning to “GGUCACGUCUCAAUCAACUCUAUUCCCAGGGAAACCCCUGGCAAAUUCAACAGCUCGCAGUCAAG”, the binding signal (log2 fold change) was -0.00801.

Source of the values: PMC5892938.
